# According to PubChem BioAssay AID686979 (National Center for Advancing Translational Sciences (NCATS), 2013):
# The whole screen tested about 420,000 compounds, of which about 50,000 (12%) were called active. Inconclusive results, whose numbers are uncertain, are shown with a selection of clear calls. Calls come from the whole dose curve; as a rule, active = well fitted inhibition curve with a large enough effect; inconclusive = small, poorly fitted or top-dose-only effect; inactive = flat fitted curve, though single readings scatter. No potency is given beside an inconclusive call; the fits are too rough.
# Test: qHTS for Inhibitors of human tyrosyl-DNA phosphodiesterase 1 (TDP1): qHTS in cells in presence of CPT; note: nearly all actives have a fitted effect of over 55% in size
# Settings: chicken DT40 Tdp1-/-;hTDP1 cells + 20 nM CPT, ATP luminescence, 48 h; activity change, negative = growth inhibition: at 46.2 µM (top of the series) unless noted
# How it was run: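 Chicken DT40 Tdp1-/- cells complemented with human TDP1, 400 cells/well, exposed to compounds plus 20 nM camptothecin for at least 48 h at 37 C; viability read as ATP content by CellTiter-Glo luminescence.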
# % is set by controls: 0 for no effect and ±100 for the full control effect; potency is the fitted concentration of half-maximal effect; tags give direction and shape of the fitted curve.
Structure (SMILES),Potency,"activity change, negative = growth inhibition"
CC(CNc1ccc([N+](=O)[O-])cc1)NC(=O)c1ccccc1Br (stereo unspecified),"inconclusive [inhibitor, single point]",–
O=C(CCC(=O)NNC(=O)c1ccc(Cl)cc1Cl)NCc1ccccc1,–,inactive: -1.2%
Cc1cccc(OCC(=O)Nc2ccccc2N2CCCC2)c1C,"inconclusive [inhibitor, single point]",–
O=C(Nc1ccc(-c2cccc(F)c2)cc1)C1CCCN(Cc2ccccn2)C1 (stereo unspecified),active: 20.6 µM,–
CC(C)(C)c1ccc(C(=O)NC2CCN(Cc3ccccc3)CC2)cc1,"inconclusive [inhibitor, single point]",–
Cc1cc(Cl)ccc1OCC(=O)NCCOc1nc(N2CCOCC2)nc(N2CCOCC2)n1,"inconclusive [inhibitor, single point]",–
CCCS(=O)(=O)c1ccc(COC(=O)c2cccc(NC(=O)C(C)C)c2)cc1,"inconclusive [inhibitor, single point]",–
Cc1cccc(NC(=S)NCCc2ccc3c(c2)OCCO3)c1C,"inconclusive [inhibitor, single point]",–
CSCC[C@H](NC(=O)[C@@H]1CSC2c3ccccc3C(=O)N21)C(=O)N1CCC[C@H]1CO (stereo partly specified),–,inactive: 3.03%
Cc1ccc(C(=O)NCC(c2cccnc2)N2CCc3ccccc32)cc1C (stereo unspecified),active: 7.31 µM,–
Cc1cc(C(F)(F)F)n(-c2nc(C(=O)Nc3cccnc3)cs2)n1,"inconclusive [inhibitor, partial curve]",–
CC(=O)Oc1ccc(N(C(C)=O)S(=O)(=O)c2ccc3ccccc3c2)cc1,"inconclusive [inhibitor, single point]",–
O=C(NCC1CCCC(CNC(=O)Nc2ccc(Cl)cn2)C1)Nc1ccc(Cl)cn1 (stereo unspecified),"inconclusive [inhibitor, single point]",–
CCN(CC)S(=O)(=O)c1cc(C(=O)Nc2cc(C)on2)ccc1Cl,–,inactive: -27.3%
Cc1ccc(C)c(Nc2nn3c(=O)c4ccc(C(=O)NC5CCCCC5)cc4nc3s2)c1,active: 7.31 µM,–
Fc1ccc(-n2ncc3c(SCc4cccnc4)ncnc32)cc1,"inconclusive [inhibitor, single point]",–
COc1cccc(-c2csc(NC(C)=O)n2)c1,–,inactive: -1.46%
CC(C)CN(C(=O)COc1ccc(-c2nnco2)cc1)C1CCS(=O)(=O)C1 (stereo unspecified),"inconclusive [inhibitor, single point]",–
COc1ncnc2c1ncn2CCCN1CCN(c2ccccn2)CC1,–,inactive: -13.7%
Cc1c(C)n(Cc2ccccc2)c2ccc(C(=O)NCc3ccco3)cc12,"inconclusive [inhibitor, single point]",–
Cc1cc2nc(-c3cccc(Cl)c3)c(Cc3ccccc3)n2c(C)c1Br,"inconclusive [inhibitor, partial curve, poor fit]",–
Cc1ccc(/C=C2\SC(=S)N(CCCC(=O)Nc3ccccn3)C2=O)cc1,"inconclusive [inhibitor, single point]",–
CSC1=NSC2=NC(=O)/C(=C\c3coc4ccccc4c3=O)C(=N)N12,–,inactive: -26.1%
Cc1cc2c(cc1C)C(c1cccc(F)c1)CC(=O)N2 (stereo unspecified),"inconclusive [inhibitor, single point]",–

Structure (SMILES),Potency,"activity change, negative = growth inhibition"
Cc1cc(NC(=O)c2cc(-c3ccc(Cl)cc3)on2)nn1Cc1ccc(Cl)cc1,–,inactive: -17.5%
CCC1CN(C(=O)Nc2cc(C)cc(C)c2)c2ccccc2O1 (stereo unspecified),"inconclusive [inhibitor, single point]",–
O=S(=O)(c1ccc(F)cc1F)N1CCN(c2nc(-c3cccs3)nc3ccccc23)CC1,"inconclusive [inhibitor, single point]",–
CCc1ccc(NC(=O)Cn2c(=O)n(CCC(=O)NCc3ccc4c(c3)OCO4)c(=O)c3ccccc32)cc1,"inconclusive [inhibitor, full curve, poor fit]",–
O=C1C2CC=C(Cl)CC2C(=O)N1CC1Cc2ccccc2CO1 (stereo unspecified),"inconclusive [inhibitor, single point]",–
Cc1c(-c2nsc(NC(=O)c3cccs3)n2)nnn1-c1ccc(Br)cc1,"inconclusive [inhibitor, partial curve, poor fit]",–
N#CC1=C(N)Oc2n[nH]c(-c3ccccc3)c2C12C(=O)Nc1ccccc12 (stereo unspecified),–,inactive: 0.879%
Fc1ccc(CSc2ncnc3nc[nH]c23)cc1,"inconclusive [inhibitor, single point]",–
CS(=O)(=O)Nc1ccc(C(=O)N2CCN(c3ccccc3)CC2)cc1,–,inactive: -18.9%
Cc1c(C(=O)Nc2nonc2-c2ccc(F)cc2)oc2ccc(F)cc12,"inconclusive [inhibitor, single point]",–
O=C(NCC1CCCO1)C1CC(c2ccc(Cl)c(Cl)c2)=NO1 (stereo unspecified),active: 18.4 µM,–
CC1C(=O)N(Cc2ccc([N+](=O)[O-])cc2)c2ccccc2N1C(=O)c1c(F)cccc1F (stereo unspecified),"inconclusive [inhibitor, single point]",–
O=C(CSc1nc2ccccc2c(=O)n1-c1ccccc1Cl)NC1CCS(=O)(=O)C1 (stereo unspecified),–,inactive: -23.9%
COc1ccc(-c2cn3ccccc3n2)cc1OC,"inconclusive [inhibitor, partial curve]",–
Cc1ccc(NC(=O)[C@H](C)NC(=O)C2CCN(C(=O)[C@H](CC(C)C)NC(=O)OC(C)(C)C)CC2)cc1,–,inactive: -7.61%
COc1ccc(Cl)cc1C(=O)Nc1ccc(-c2nnc3n2CCCCC3)cc1,"inconclusive [inhibitor, full curve, poor fit]",–
O=C(NCc1ccccc1Cl)c1ccc2c(O)c(S(=O)(=O)c3ccccc3)c(=O)[nH]c2c1,–,inactive: 17.6%
COc1cc(C(=O)Nc2ccn(C)n2)ccc1OC(F)F,–,inactive: -9.7%
Cc1cc(C)cc(NC(=S)N2CCN(CCO)CC2)c1,–,inactive: 5.42%
COc1ccc(OC)c(-c2nc(C(=O)NCCCN3CCOCC3)cc3c2[nH]c2ccccc23)c1,active: 16.4 µM,–
O=C(NCCc1ccccc1)C(=O)NCC1CCCN1S(=O)(=O)c1cccs1 (stereo unspecified),active: 23.1 µM,–
CC(C)CC1C(=O)N(Cc2cn(Cc3ccco3)nn2)CCS(=O)(=O)N1Cc1ccc(-c2cccc(N(C)C)c2)cc1 (stereo unspecified),"inconclusive [inhibitor, single point]",–
COc1cccc(NC(=O)C2CCN(C(=O)N3CC(C)Oc4ccccc43)CC2)c1 (stereo unspecified),"inconclusive [inhibitor, single point]",–
O=c1[nH]cnc2scc(-c3ccc(Br)cc3)c12,–,inactive: -7.81%

Structure (SMILES),Potency,"activity change, negative = growth inhibition"
CCOC(=O)C(C(=O)Nc1ccccn1)C1CCCCC1 (stereo unspecified),–,inactive: 1.41%
CCOc1ccc(C(C)=O)cc1COC(=O)c1cc([N+](=O)[O-])ccc1N1CCOCC1,active: 23.1 µM,–
COc1ccccc1Nc1ccc(C(=O)NC2CCCCC2)cn1,"inconclusive [inhibitor, single point]",–
Cc1ccc(C)c(NC(=O)CN(CCc2ccccc2)S(=O)(=O)c2ccccc2)c1,"inconclusive [inhibitor, single point]",–
Cc1ccc(/C=N/N=C2/NC(=O)C(CC(=O)Nc3ccccc3)S2)o1 (stereo unspecified),–,inactive: -23.2%
CCN(CC)CCn1c2c(c(SCC(=O)Nc3cccc4ccccc34)nc1=O)CCC2,–,inactive: -28.7%
COc1ccc(CNCc2ccccc2)cc1COc1ccc(NC(C)=O)cc1,active: 8.91 µM,–
CC(C(=O)Nc1ccccc1-c1ccccc1)N1CCN(Cc2ccccc2)CC1 (stereo unspecified),"inconclusive [inhibitor, single point]",–
c1ccc2nc(NN=C3CCCCC3)ccc2c1,"inconclusive [inhibitor, single point]",–
Cc1noc(C)c1COc1ccc(C(=O)OCC(=O)Nc2ccc(S(N)(=O)=O)cc2)cc1,"inconclusive [inhibitor, partial curve]",–
COc1cccc(-n2c(SCc3ccccc3C)nc3c([nH]c4ccccc43)c2=O)c1,"inconclusive [inhibitor, single point]",–
O=C(C1CCCCC1)N1CCC(c2nc3c(nnn3Cc3c(F)cccc3Cl)c(=O)[nH]2)CC1,–,inactive: -19.2%
Cn1c(=O)c(C(=O)CN2CCN(S(=O)(=O)c3ccccc3)CC2)c(N)n(Cc2ccccc2)c1=O,"inconclusive [inhibitor, single point]",–
Cc1ccccc1-c1nc2c(s1)CCc1onc(-c3ccc(Cl)cc3)c1-2,–,inactive: 17.9%
CC(=O)c1ccc(NC(=O)CCc2c(C)nc3cc(-c4ccc(Cl)cc4)nn3c2C)cc1,"inconclusive [inhibitor, full curve]",–
CCOC(=O)c1[nH]c2ccccc2c1NC(=O)CC(C)C,–,inactive: -3.93%
CC(C)(C)c1cc(=O)n2c(C#N)c(C#N)nc2[nH]1,–,inactive: 17.9%
CCN(CC)C(=O)[C@H]1CC(CC(=O)NC/C=C(\C)CCC=C(C)C)C(=O)N2CCc3c([nH]c4ccc(OC)cc34)[C@]12C (stereo partly specified),"inconclusive [inhibitor, single point]",–
CCC(=O)Nc1cc(-c2nc3ncccc3o2)ccc1Cl,–,inactive: 2.77%
Cc1cccc(C(=O)N2CCN(S(=O)(=O)c3ccc4c(c3)OCCCO4)CC2)c1[N+](=O)[O-],"inconclusive [inhibitor, single point]",–
COc1ccc(/C=N/NC(=O)c2c(C)nc3ccccn23)cc1[N+](=O)[O-],–,inactive: -2.53%
CC(C)(C)c1ccc(C(=O)N2CCN(S(=O)(=O)c3ccc(Br)s3)CC2)cc1,"inconclusive [inhibitor, single point]",–
COc1ccc(N2CCN(C(=O)COC(=O)CNC(=O)c3ccc(C)cc3)CC2)cc1,–,inactive: -17%
